Test results published in PMC3517537.
These are yes or no findings as the source states them, for the method shown. Binding seen in cells or lysates may run through a third protein. Some binding calls cover weakened binding; strength is not graded here.

Protein sequences, listed by entry. Tags and fused reporters are not part of them.
UniProt Q15691: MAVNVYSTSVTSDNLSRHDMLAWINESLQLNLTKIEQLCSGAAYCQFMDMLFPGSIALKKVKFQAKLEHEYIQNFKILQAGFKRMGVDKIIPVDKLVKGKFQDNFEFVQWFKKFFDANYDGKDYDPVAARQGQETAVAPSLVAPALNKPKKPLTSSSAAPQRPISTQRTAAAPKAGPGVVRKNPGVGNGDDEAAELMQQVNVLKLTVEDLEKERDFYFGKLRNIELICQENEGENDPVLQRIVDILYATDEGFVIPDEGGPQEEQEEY

B1: in vitro translated 35S-labeled GTSE1 WT (protein, UniProt Q9NYZ3 1-739)
chain: MEGGGGRDEPSACRAGDVNMDDPKKEDILLLADEKFDFDLSLSSSSANEDDEVFFGPFGHKERCIAASLELNNPVPEQPPLPTSESPFAWSPLAGEKFVEVYKEAHLLALHIESSSRNQAAQAAKPEDPRSQGVERFIQESKLKINLFEKEKEMKKSPTSLKRETYYLSDSPLLGPPVGEPRLLASSPALPSSGAQARLTRAPGPPHSAHALPRESCTAHAASQAATQRKPGTKLLLPRAASVRGRSIPGAAEKPKKEIPASPSRTKIPAEKESHRDVLPDKPAPGAVNVPAAGSHLGQGKRAIPVPNKLGLKKTLLKAPGSTSNLARKSSSGPVWSGASSACTSPAVGKAKSSEFASIPANSSRPLSNISKSGRMGPAMLRPALPAGPVGASSWQAKRVDVSELAAEQLTAPPSASPTQPQTPEGGGQWLNSSCAWSESSQLNKTRSIRRRDSCLNSKTKVMPTPTNQFKIPKFSIGDSPDSSTPKLSRAQRPQSCTSVGRVTVHSTPVRRSSGPAPQSLLSAWRVSALPTPASRRCSGLPPMTPKTMPRAVGSPLCVPARRRSSEPRKNSAMRTEPTRESNRKTDSRLVDVSPDRGSPPSRVPQALNFSPEESDSTFSKSTATEVAREEAKPGGDAAPSEALLVDIKLEPLAVTPDAASQPLIDLPLIDFCDTPEAHVAVGSESRPLIDLMTNTPDMNKNVAKPSPVVGQLIDLSSPLIQLSPEADKENVDSPLLKF
modifications: 35S-labeled
B2: in vitro translated 35S-labeled murine GTSE1 (protein, UniProt Q8R080 1-741)
chain: MDAGSKKEDFLLLEDEKFDFDLSLSSSSTNEDDEVFFGPVGHKERCIAASLDLNRRVPGQPLAPGSGSPCTLSPLTGEKFVEVYKEAHLLALQIESHSRREVAQAATPQNPVNQGKETFVQDSQLKVSLFEKEQKRDRSPMSLKRETFCLPSSRVQPPMGEPQLLASPGLLSSPVSAGPAQTQSNQGLPCSSQPLPRESSTSQPPSQAGPQKRITSKLQPPRALPVRGRNLHLATEKLKKEVPASIQRTKLVNEKGSQSDVLQDKPSTAPDAASREGHPGKRSLPIPGKLGLKKTLLKPPGYTGNLTRKSSTSGSASSLESGVYRSSVAGKAKSSEQRSSIPASGSQRRTSTSKSGRIGPAASRQALPAAPARVFGRQANKADAAQTVAEQPKVPTLSPLTQQPQTPEQRGPRLDPDTETPQLNKTVSIKRRDSYLSCKTEAVSTTTNPFKVPQFSVGESPGGVTPKFSRTHRLQSWTPASRVVSSTPVRRSSGTTPQGLPGSMRTPLSTRRMSVLPTPASRRLSSLPLMAPQSMPRALVSPLCVPARRLSSEPRRRSTVRAELTQESSGSGSGGQAQGLSSDESSSPPSSVPQALNFSPEKSASPPPQGSSTGAAQGEAEPPEDTLPSEVHGGGCSHTPSEGLLLDLKLDQLTITPEAGGRDLADCPLIDFSNTPESNTALGPSSWPLIDLIMNTPDMGRNDVGKPAKAELGQLIDLGSPLIQLSPEADKENVDSPLLKF
modifications: 35S-labeled
B3: in vitro translated 35S-labeled GTSE1 mutated at the SKIP motifs (L511N P512N L522N P523N) (protein, UniProt Q9NYZ3 1-739)
chain: MEGGGGRDEPSACRAGDVNMDDPKKEDILLLADEKFDFDLSLSSSSANEDDEVFFGPFGHKERCIAASLELNNPVPEQPPLPTSESPFAWSPLAGEKFVEVYKEAHLLALHIESSSRNQAAQAAKPEDPRSQGVERFIQESKLKINLFEKEKEMKKSPTSLKRETYYLSDSPLLGPPVGEPRLLASSPALPSSGAQARLTRAPGPPHSAHALPRESCTAHAASQAATQRKPGTKLLLPRAASVRGRSIPGAAEKPKKEIPASPSRTKIPAEKESHRDVLPDKPAPGAVNVPAAGSHLGQGKRAIPVPNKLGLKKTLLKAPGSTSNLARKSSSGPVWSGASSACTSPAVGKAKSSEFASIPANSSRPLSNISKSGRMGPAMLRPALPAGPVGASSWQAKRVDVSELAAEQLTAPPSASPTQPQTPEGGGQWLNSSCAWSESSQLNKTRSIRRRDSCLNSKTKVMPTPTNQFKIPKFSIGDSPDSSTPKLSRAQRPQSCTSVGRVTVHSTPVRRSSGPAPQSLLSAWRVSANNTPASRRCSGNNPMTPKTMPRAVGSPLCVPARRRSSEPRKNSAMRTEPTRESNRKTDSRLVDVSPDRGSPPSRVPQALNFSPEESDSTFSKSTATEVAREEAKPGGDAAPSEALLVDIKLEPLAVTPDAASQPLIDLPLIDFCDTPEAHVAVGSESRPLIDLMTNTPDMNKNVAKPSPVVGQLIDLSSPLIQLSPEADKENVDSPLLKF
modifications: 35S-labeled

Molecular target: GST-EB1 fusion protein (pGEX (6p-2)-EB1) (UniProt Q15691)
Assay: pull-down; purified GST, GST-hGTSE1 or GST-EB1 immobilised on glutathione-Sepharose 4B beads, incubated with 35S-labeled in vitro translated proteins in 150 mM NaCl, 20 mM Hepes pH 7.5, 0.05% NP-40, 10% glycerol; autoradiography; only the target purified

Q: Which binding does the source give for B1 here?
A: Its binding is “binds”.

Q: For B2, which binding is on record?
A: Its binding is “binds”.

Q: Which binding does the source give for B3 here?
A: The binding was “no binding”.
